Article PMC4336329 (PLoS ONE, 2015)
Out of some 310,000 compounds screened, about 14,000 (4.5%) showed an effect of 50% or more. Effects have a minus sign here. This is one part of the list.

Each compound was assayed against human ether-à-go-go-related gene (hERG) potassium channel (human, UniProt Q12809) (assay: primary screen, population patch clamp on CHO cells stably expressing hERG).
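Also: peak tail current of the secondary pulse compared with the same well before compound.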

Sequence of human ether-à-go-go-related gene (hERG) potassium channel (Q12809 whole entry, looked up): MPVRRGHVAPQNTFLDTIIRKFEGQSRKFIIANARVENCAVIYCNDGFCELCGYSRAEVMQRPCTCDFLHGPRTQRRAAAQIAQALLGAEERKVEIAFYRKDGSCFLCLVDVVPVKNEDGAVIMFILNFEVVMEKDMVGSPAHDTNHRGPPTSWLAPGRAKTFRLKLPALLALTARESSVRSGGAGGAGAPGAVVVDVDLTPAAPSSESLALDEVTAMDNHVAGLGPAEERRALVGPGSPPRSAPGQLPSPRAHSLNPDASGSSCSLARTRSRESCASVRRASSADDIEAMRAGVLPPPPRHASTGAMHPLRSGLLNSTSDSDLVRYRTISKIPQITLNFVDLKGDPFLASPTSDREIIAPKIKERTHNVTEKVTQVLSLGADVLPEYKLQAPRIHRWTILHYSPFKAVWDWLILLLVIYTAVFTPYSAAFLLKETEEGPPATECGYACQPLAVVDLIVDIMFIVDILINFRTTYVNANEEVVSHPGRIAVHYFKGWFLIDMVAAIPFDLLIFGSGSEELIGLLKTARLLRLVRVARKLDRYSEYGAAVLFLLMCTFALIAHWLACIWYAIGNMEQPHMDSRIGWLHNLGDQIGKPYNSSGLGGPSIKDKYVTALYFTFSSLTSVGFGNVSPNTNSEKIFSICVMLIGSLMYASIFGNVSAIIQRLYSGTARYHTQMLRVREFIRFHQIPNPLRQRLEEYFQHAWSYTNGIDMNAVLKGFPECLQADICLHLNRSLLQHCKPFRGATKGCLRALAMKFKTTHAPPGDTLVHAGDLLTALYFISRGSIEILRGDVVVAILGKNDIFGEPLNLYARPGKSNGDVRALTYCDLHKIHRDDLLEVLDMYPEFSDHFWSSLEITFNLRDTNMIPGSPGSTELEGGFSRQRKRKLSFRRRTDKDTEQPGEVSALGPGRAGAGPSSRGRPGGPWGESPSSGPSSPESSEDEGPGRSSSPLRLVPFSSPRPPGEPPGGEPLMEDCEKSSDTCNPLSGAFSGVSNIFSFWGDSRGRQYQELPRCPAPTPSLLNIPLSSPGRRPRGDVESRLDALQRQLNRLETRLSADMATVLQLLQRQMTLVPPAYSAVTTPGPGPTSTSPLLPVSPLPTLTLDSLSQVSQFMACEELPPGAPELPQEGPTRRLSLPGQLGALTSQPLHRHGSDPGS

Row | SMILES | hERG current change (%, negative = inhibition) at 10uM
1 | COc1ccccc1Cn1c(=O)c2ccccc2n2c(Sc3ncnc4sccc34)nnc12 | -10.6%
2 | O=C(O)COc1ccccc1/C=N/Nc1ccc(S(=O)(=O)Nc2ccc(Cl)cc2)cc1[N+](=O)[O-] | 25.2%
3 | CC(N)C(=O)c1ccco1.Cl (centres unmarked) | 13.2%
4 | Cc1ccc(S(=O)(=O)CCC(=O)N(CCN2CCOCC2)c2nc3ccccc3s2)cc1.Cl | 13.4%
5 | COc1cc2nc(C3CCC3)n(NC(=O)C3CCC(OC)CC3)c(=O)c2cc1OC (centres unmarked) | -7.1%
6 | CC(C)CCNC(=O)C1CC(c2cccc(F)c2)=NO1 (centres unmarked) | -2.54%
7 | COc1ccc(C(Sc2ccccc2)c2ccccc2)cc1OC (centres unmarked) | 7.26%
8 | CCC(C)(C)NC(=O)CN(C(=O)C(=O)Nc1ccc2c(c1)OCCO2)N1CCOCC1 | -2.68%
9 | COc1cccc(NC(=O)C(Sc2nnnn2C)c2ccccc2)c1 (centres unmarked) | 19%
10 | Cc1onc(-c2ccccc2Cl)c1C(=O)Nc1nc2ccc(S(C)(=O)=O)cc2s1 | -2.5%
11 | Cc1cc(C)n(-c2nc(NCCCN(C)C)c3c4c(sc3n2)CCCC4)n1 | -65.2%
12 | O=C(Nc1ccccc1)c1ccc(NCC2CCCO2)c(S(=O)(=O)N2CCOCC2)c1 (centres unmarked) | 11.2%
13 | O=c1[nH]c(SCc2ccccc2Cl)nc2c1cnn2-c1ccccc1 | 16.9%
14 | O=C(NCC1(c2ccccc2)CCCC1)c1ccc(Br)o1 | 1.9%
15 | Cn1c(=O)n(C)c2cc([N+](=O)[O-])c(N3CCN(C(=O)c4ccc(F)cc4)CC3)cc21 | -44%
16 | CCO[C@H]1OC(C(=O)NCc2ccccc2)=C[C@@H](c2ccc(C(F)(F)F)cc2)[C@@H]1CCCO | -31.5%
17 | CCNC(=O)C1CCCc2c1[nH]c1ccc(Cl)cc21 (centres unmarked) | 16.3%
18 | COc1ccc(N=C2S/C(=C\c3ccc(C)o3)C(=O)N2CC(C)C)cc1 | 8.37%
19 | COc1ccc(C(C)=O)cc1COC(=O)CNC(=O)c1ccc(Cl)cc1 | -4.06%
20 | COc1ccc(NC(=O)NC2(C(=O)N3CCCCCC3)CCCCC2)cc1 | -13%
21 | COc1ccc(C(C)=O)cc1Cn1cnc2c(cnn2C)c1=O | 10%

Row | SMILES | hERG current change (%, negative = inhibition) at 10uM
22 | Cc1[nH]nc(SCC(=O)NC2CCCCC2)c1[N+](=O)[O-] | 13%
23 | Cc1ccc2c(c1)C(c1ccc(F)cc1)N(C(=O)c1cc3ccccc3oc1=O)CC(=O)N2 (centres unmarked) | -55%
24 | O=C(CCNS(=O)(=O)c1ccc(Br)s1)N1CCCCC1 | 4.95%
25 | CCN(CC)S(=O)(=O)c1ccc(C(=O)NCc2nnc(SCC(=O)OC)n2C)cc1 | -1.87%
26 | COc1ccc(C)cc1-n1nnnc1SCC(=O)Nc1cccnc1Cl | -16.2%
27 | Cc1ccc2cccc(OCC(=O)N(C)CC(=O)Nc3ccc(F)cc3)c2n1 | 8.32%
28 | Cc1cc(C)cc(OCC(=O)OCC(=O)NCc2ccco2)c1 | 4.8%
29 | Cn1c2ccccc2c2c(C(=O)NCc3ccco3)cn(C3CCCCC3)c(=O)c21 | -33.4%
30 | CCc1ccnc(NS(=O)(=O)c2ccc3c(c2)CCO3)c1 | 18.7%
31 | Nc1cc(OC(=O)c2ccc(F)cc2)nn1S(=O)(=O)c1ccc(F)cc1 | 20%
32 | COc1ccccc1-c1nc(SC)n[nH]1 | -16.3%
33 | O=C(O)C1=C(OCc2ccccc2)C(=O)NCC1 | 20.3%
34 | COc1cc(/C=N/NC(=O)c2ccccn2)cc2c1OCO2 | -10.2%
35 | COc1cc(C#N)c(N=C(SCC#N)N2CCOCC2)cc1OC | 7.99%
36 | Clc1ccc(-c2csc(N3CCCCCC3)n2)cc1 | 12.1%
37 | Cc1ccc(C)c(NC(=O)CN(C)C(=O)c2ccc3c(=O)n4c(nc3c2)CCC4)c1 | -4.83%
38 | COCCN(C(=O)COC(=O)c1cc(C)oc1C)c1c(N)n(Cc2ccccc2)c(=O)[nH]c1=O | -2.83%
39 | Cc1onc(-c2ccccc2)c1C(=O)N/N=C/c1cc2c(cc1Cl)OCO2 | -0.765%
40 | CN(C)c1ccccc1C(=O)N1CCC(n2nccc2NC(=O)C2CC2)CC1 | 15.7%
41 | COc1ccccc1CNC(=O)COC(=O)C1CCN(S(=O)(=O)c2ccccc2)CC1 | -26.9%
42 | O=C(Cn1cnc2c(cnn2-c2ccccc2)c1=O)OCc1ccccc1 | 14.9%

Row | SMILES | hERG current change (%, negative = inhibition) at 10uM
43 | CSCCC(NC(=O)COc1ccccc1)C(=O)N1CCN(C(C)=O)CC1 (centres unmarked) | -5.67%
44 | CC(C(=O)NCC1CCCCC1)N(C)CC(=O)Nc1ccc(N2CCOCC2)cc1 (centres unmarked) | 4.48%
45 | COc1ccc(/C(O)=C2/C(=O)C(=O)N(Cc3cccnc3)C2c2ccccn2)cc1 (centres unmarked) | 4.12%
46 | COC(=O)N1C(=O)[C@@](Cc2ccccc2)(c2ccccc2)N1C(=O)OC | 11.8%
47 | COc1cc(OC)c2c(C)cc(=O)oc2c1C(CCN1CCOCC1)c1ccc(N(C)C)cc1 (centres unmarked) | -28.5%
48 | CCOC(=O)COc1ccc2c(c1)c(C(C)=O)c(C)n2Cc1ccccc1 | -40.7%
49 | Cc1ccsc1CNn1cnnc1SCc1ccccc1F | -3.67%
50 | CN(C)CC#CCC(O)(c1ccccc1)C1CCCC1.Cl (centres unmarked) | -21.4%
51 | O=C(OCc1nnc(-c2ccc(Cl)cc2)o1)c1ccc(O)cc1 | 11.8%
52 | Cc1ccc(NC(=O)Cn2nc(C)c(S(=O)(=O)N(C)C)c2C)cc1 | 40.5%
53 | CC1(C)CNC(=O)CC(C)(C)N1O | -12.6%
54 | COc1ccc(-c2nc(NC(=O)C3CCN(c4nc5ccccc5o4)CC3)sc2C)cc1 | 4.03%
55 | COc1ccc(Cc2nnc(NC(=O)c3cc(OC)c(OC)c(OC)c3)s2)cc1OC | -5.88%
56 | CCOc1cc(C)c(C(C)C)cc1S(=O)(=O)N1CCN(C)CC1 | -11.5%
57 | CNC(=O)c1sc(N2N=C3/C(=C/c4ccccc4)CCCC3C2c2ccccc2)nc1C (centres unmarked) | 8.73%
58 | CC(C)OC(=O)CC12CN(C)CC(CC(=O)OC(C)C)(CN(C)C1)C2=O | 1.92%
59 | Cc1ccc(-c2cn3cccnc3n2)cc1NC(=O)c1c(-c2ccccc2Cl)noc1C | -7.9%
60 | CCN(CC)C(=O)Cn1cnc2sc(C(=O)N3CCN(Cc4ccc5c(c4)OCO5)CC3)c(C)c2c1=O | -19.5%
61 | C/C=C(\C)C(=O)N[C@@H](c1ccccc1)[C@@H](O)C(=O)O[C@H]1C[C@@]2(O)[C@@H](OC(=O)c3ccccc3)C3[C@](C)(C(=O)[C@H](OC(C)=O)C(=C1C)C2(C)C)[C@H](O)C[C@H]1OC[C@@]31OC(C)=O (some centres unmarked) | 10.7%
62 | COc1ccc(OC)c(CN2CCN(C(=O)c3cccc4ccccc34)CC2)c1.O=C(O)C(=O)O | -2.37%
63 | CCN1C(=O)[C@H]2[C@@H](c3ccc(-c4ccccc4)cc3)N[C@@](CC(C)C)(C(=O)OC)[C@H]2C1=O.O=C(O)C(F)(F)F | 6.29%

Row | SMILES | hERG current change (%, negative = inhibition) at 10uM
64 | CC1(C)Cc2nc(NCCCO)c(C#N)cc2CO1 | 8.61%
65 | O=C(O)c1cc(-c2ccccc2Cl)n(-c2cccc(Cl)c2)n1 | 6.64%
66 | Cc1cc(C)n(/C(=C\N(C)C)C(=O)c2ccc(Cl)cc2)n1 | 26.8%
67 | O=C1CC(c2ccccc2Cl)C2=C(COC2=O)N1 (centres unmarked) | -6.11%
68 | CN(CC(=O)Nc1n[nH]c(=S)s1)S(=O)(=O)c1cccc2cccnc12 | 7.52%
69 | CCCCC(=O)NC(c1cccs1)c1cc(Cl)c2cccnc2c1O (centres unmarked) | -17.6%
70 | Cc1cccc(C)c1N(CC(=O)N1CCCC1)S(C)(=O)=O | 17%
71 | CN(C(=O)c1ccccc1-c1ccccc1C(=O)O)c1ccccc1 | 10.8%
72 | COc1ccc(C(=O)NNC(=S)NC(=O)c2ccccc2[N+](=O)[O-])cc1 | 17.1%
73 | CC1CCCCC1NC(=O)COC(=O)c1ccccn1 (centres unmarked) | 2.49%
74 | O=C(NC(Cc1ccccc1)C(=O)O)/C(=C\c1ccccc1)NC(=O)c1ccc(Br)o1 (centres unmarked) | 2.51%
75 | CCOC(=O)N1CCN(C(=O)c2ccc(S(=O)(=O)NCc3ccco3)cc2)CC1 | -2%
76 | CCSc1ccc([C@@H]2[C@@H]3C(=O)N(CC)C(=O)[C@@H]3[C@]3(C(=O)OC)CCCCN23)cc1OC.O=C(O)C(F)(F)F | -6.79%
77 | CCOc1ccc(NC(=O)N[C@@H](CCSC)C(=O)OC)cc1 | 5.52%
78 | Cc1nn(C)cc1C(C(=O)NC1CCCCC1)N(CCc1ccccc1)C(=O)c1cnccn1 (centres unmarked) | -25.4%
79 | COc1ccc(-c2ccc(C#N)c(SCC(=O)NCCc3ccccc3)n2)cc1OC | 18.2%
80 | CCCn1cc(SCC(=O)Nc2ccc3c(c2)OCO3)c2ccccc21 | -2.42%
81 | Clc1ccc(-c2csc(N3CCSCC3)n2)cc1 | 11.5%
82 | COc1cc(/C=C2/SC(=S)N(CCC(=O)Nc3ccccc3)C2=O)cc(OC)c1OC | 13.8%
83 | O=C(OC(C(=O)NCc1ccccc1)c1ccccc1F)c1ccco1 (centres unmarked) | -4.55%
